Reference: PubChem BioAssay AID1508642 (National Center for Advancing Translational Sciences (NCATS), 2021)
About 200 (0.47%) of roughly 43,000 compounds were called active. Another 12% or so got no clear call; they are omitted. Calls come from the whole dose curve; as a rule, active = well fitted cell-killing curve with a large enough effect; inconclusive = small, poorly fitted or top-dose-only effect, or effect the other way; inactive = flat fitted curve, though single readings scatter. Some of the results follow.

test: Cell viability qHTS assay in S16 Pmp22-F2sN cells; conditions: S16 Pmp22-F2sN Schwann cells (luciferase reporters placed in the Pmp22 gene) viability, CellTiter-Glo, 24 h; series mostly up to 57.5 µM; activity change, negative = cytotoxicity: at the top concentration; note: nearly all actives have a fitted effect of over 65% in size
Description: Assay Provider: Jim Inglese Ph.D. National Center for Advancing Translational Science, National Institutes of Health, Rockville, MD CMT is a heterogeneous group of neurological disorders that affect approximately 1 in 2,500 people. In particular, the most common form of CMT, CMT1A is genetically linked to the duplication of the PMP22 gene which leads to Schwann cell overexpression, thus manifesting itself as a typical case of dose-sensitive diseases. To identify small molecule compounds that can mediate the expression of PMP22 we developed a phenotypic assay screening strategy by utilizing genome editing techniques to construct Schwann cell lines containing novel reporter technology to monitor the transcriptional or translational regulation of PMP22. For high sensitivity we use a bioluminescent reporter system embedded in the 3' UTR of the PMP22 gene (S16(c9) Pmp22-F2sN) to identify compounds that inhibit gene expression. […] We can further discriminate the effect of all transcriptionally active molecules on PMP22 translation or stability with an assay that incorporates a short NLuc peptide (HiBiT) at the C-terminus of expressed PMP22 (S16(f8) PMP22-HiBiT) allowing alpha complementation and luminescence detection of membrane-associated PMP22 protein. These assays were screened against the NCATS Sytravon Library Collection. Miniaturization of these assays to 1536-well plate format for quantitative high throughput screening (qHTS) yielded rich data sets immediately from the qHTS assay (S16(c9) Pmp22-F2sN), when compared with data from a cell viability assay (Cell TiterGlo) to identify compounds that decreased the output signals through cellular toxicity to streamline the selection process of actives for subsequent characterization using the HiBiT assay (S16(f8) PMP22-HiBiT).
Cell viability assay in S16 Pmp22-F2sN cells PROTOCOL TABLE (format as described by Inglese J, Shamu CE and Guy RK. 2007) SEQUENCE No. (e.g., 1, 2, 3, etc.); […] (e.g., Cells, Incubation, Reagent, etc.); VALUE and DESCRIPTION. 1. Cells. Add 500-1,000 cells in 4 uL in growth media (DMEM High Glucose, No Phenol Red media + 10% heat-inactivated FBS + 1% Pen/Strep supplemented media) per well into Greiner 1536-well white/solid bottom high base, TC-treated plates. 2. Compounds. Library compounds and controls added at 23nL per well, transferred by Pin Tool. 3. Incubation. Incubate plates at 37C, 5% CO2, 95% RH for 24 h. 4. Reagent. Add 3uL CellTiter-Glo per well of Greiner 1536-well plates. 5. Incubation. Incubate plates at room temperature for 15 min., protect from light. 6. Detector. FLuc luminescence measured using CCD-based camera (Viewlux). NOTES (numbers refer to Sequence numbers above; values are from representative experiments) 6. Luminescence Read: Clear filter; Exposure = 1 sec, Gain = High, Speed = Slow, Binning = 2X REFERENCES: 1. Inglese J, Shamu CE and Guy RK, Reporting data from high throughput screening of small molecule libraries, Nature Chemical Biology, 2007, 3(8): 438-441. doi.org/10.1038/nchembio0807-438 2. Yasgar A, Shinn P, Jadhav A, Auld DS, Michael S, Zheng W, Austin CP, Inglese J and Simeonov A, Compound Management for Quantitative High-Throughput Screening. J. Assoc. Lab. Auto., 2008, 13: 79-89. doi: 10.1016/j.jala.2007.12.004
% is set by controls: 0 for no effect and ±100 for the full control effect.

Row | SMILES | activity change, negative = cytotoxicity
1 | CCc1ccccc1NC(=O)CSc1nc2c(c(=O)[nH]1)CN(Cc1ccccc1OC)CC2 | inactive: -22.3%
2 | Cn1cnc(S(=O)(=O)N2CCCC(C(=O)Nc3ccc(OC(F)(F)F)cc3)C2)c1 (centres undefined) | inactive: 0.997%
3 | CCc1ccc(C(=O)NC2=NC(c3ccccc3F)CC(=O)N2)cc1 (centres undefined) | inactive: 0.868%
4 | CCOC(=O)c1c(NC(=O)c2ccc(C)c(C)c2)sc2c1CCCCC2 | inactive: 4.33%
5 | CCC(=O)N1CCc2cc(S(=O)(=O)NC(C(=O)Nc3cc(OC)cc(OC)c3)C(C)C)ccc21 (centres undefined) | inactive: 1.58%
6 | COCCCNC(=O)c1ccc2nc(CCc3ccccc3)oc2c1 | inactive: 3.75%
7 | Cc1ccc(OCC(=O)Nc2ccc(-c3nc4ccccc4o3)cc2)c(C)c1 | inactive: 3.74%
8 | O=C(Nc1ccccc1Br)N1CCC(CN2CCCC2)CC1 | inactive: 0.706%
9 | Cc1c(Cl)ccc2sc(N3CCN(C(=O)CS(=O)(=O)c4ccccc4)CC3)nc12 | inactive: -6.51%
10 | O=C(Cc1c(C(=O)O)[nH]c2ccccc12)Nc1cccc(C(F)(F)F)c1 | inactive: 5.83%
11 | CCOc1ccc(OCC)c(NS(=O)(=O)c2ccc3c(c2)CCN3C(=O)C2CCC2)c1 | inactive: 9.07%
12 | CCOc1ccc(CNC(=O)Cn2c(=O)c3cccn3c3ccccc32)cc1 | inactive: 2.65%
13 | CCCN1CCN(CCCNC(=O)c2c(C)nn(-c3ccc(F)cc3)c2-n2cccc2)CC1 | inactive: 27.3%
14 | Cc1nnc(N2CCCC(C(=O)NCCc3ccccc3)C2)c2nn(-c3ccccc3)c(C)c12 (centres undefined) | inactive: 1.96%
15 | CCOC(=O)Cn1c(=O)oc2cc(S(=O)(=O)N3CCN(c4cc(C)ccc4C)CC3)ccc21 | inactive: -9.93%
16 | COCCN1CCN(Cc2ccc(C(=O)NC(C)C)cc2)C(=O)C1=O | inactive: 0.412%
17 | CCCCn1c(SCC(=O)NCc2ccc(C)cc2)nc2c(sc3ccccc32)c1=O | inactive: 0.809%
18 | COc1ccc(CNC(=O)C(C)n2c(=O)cc(C)c3c(C)nn(-c4ccccc4)c32)cc1 (centres undefined) | inactive: -1.5%
19 | CCC1CN(C(=O)C2CCN(S(=O)(=O)c3c(C)noc3/C=C/c3ccccc3F)CC2)c2cc(C)ccc2O1 (centres undefined) | inactive: -4.57%
20 | COc1ccc(C2c3cccn3CCN2S(=O)(=O)c2ccc([N+](=O)[O-])cc2)cc1 (centres undefined) | inactive: 8.96%

Row | SMILES | activity change, negative = cytotoxicity
21 | COc1ccc(C2CC(=O)N(CC(=O)Nc3cccc(C)c3C)c3ccccc3S2)cc1OC (centres undefined) | inactive: -5.68%
22 | Cc1ccc(C(=O)N2CCC(C(N)=O)CC2)cc1NC(=O)c1nsc2ccccc12 | inactive: -0.0219%
23 | COc1ccccc1CNC(=O)CCCn1c(=O)c2ccccc2n(Cc2ccc(C)cc2)c1=O | inactive: 11%
24 | COc1ccc(CN2CCCN(CC(=O)Nc3ccc4c(c3)OCCO4)S2(=O)=O)cc1 | inactive: -4.41%
25 | Cc1ccc(-c2noc(-c3nnn(CC(=O)Nc4cc(Cl)ccc4C)c3N)n2)cc1 | inactive: 2.35%
26 | Cc1ccc(CSc2nc3cccnc3n2Cc2ccc(C(=O)NCCc3cccs3)cc2)cc1 | inactive: -20.5%
27 | Cc1nn(C)c2c1c(C(F)(F)F)cc(=O)n2CC(=O)N1CCC(C)CC1 | inactive: 9.28%
28 | CC1CCN(S(=O)(=O)c2cc(C(=O)N3CCN(c4ccccc4F)CC3)n(C)c2)CC1 | inactive: 21.4%
29 | COc1ccc(N(CC(=O)NCCc2ccc(Cl)cc2)S(=O)(=O)c2c(C)nn(C)c2C)cc1 | inactive: 14.1%
30 | Cc1ccc(Sc2ccc(N3CCCC(C(=O)Nc4ccc(F)cc4F)C3)nn2)cc1 (centres undefined) | inactive: -6.09%
31 | CCOC(=O)C1CCN(C(=O)c2nn(-c3ccc(OC)cc3)c(=O)c3c2c2ccccc2n3C)CC1 | inactive: -6.64%
32 | COc1ccc(C(=O)N2CCC(C(=O)Nc3ccccc3Cl)CC2)cc1 | inactive: 12.2%
33 | CCc1ccccc1NC(=O)c1cc(S(=O)(=O)NC2CCCC2)ccc1F | inactive: -1.42%
34 | COc1ccc(NC(=O)c2ccco2)cc1NC(=O)COc1ccccc1Cl | inactive: 7.49%
35 | Cc1ccc(C(=O)N/C(=C\c2cn(S(=O)(=O)N(C)C)c3ccccc23)C(=O)NCCCn2ccnc2)cc1 | inactive: 0.0561%
36 | COc1ccc(-n2nc(C(=O)N3CCN(c4cccc(C)c4)C(C)C3)c3c4ccccc4n(C)c3c2=O)cc1 (centres undefined) | inactive: 13.2%
37 | CCCn1ccc2c(OCC(=O)Nc3ccc(F)cc3F)cccc2c1=O | inactive: 3.05%
38 | CCn1cc(C(=O)NC(C)c2ccccc2)c(=O)c2cc(S(=O)(=O)N3CCc4ccccc4C3)ccc21 (centres undefined) | inactive: -3.3%
39 | Cc1ccc(-n2nc(C)c3nc(CCC(=O)Nc4ccc(F)cc4)c(=O)n(C)c32)cc1 | inactive: -1.86%
40 | CCOc1ccccc1N(C)C(=O)NCc1noc2ccccc12 | inactive: -28.8%

Row | SMILES | activity change, negative = cytotoxicity
41 | O=C(NCCc1ccc(Cl)cc1)c1cccn1-c1nnc(N2CCCC2)s1 | inactive: 3.37%
42 | COc1ccc(C(=O)c2cn(CC(=O)Nc3ccc4c(c3)OCO4)c3ccc(OC)cc3c2=O)cc1 | inactive: 0.102%
43 | Cc1ccc(NC(=O)Cn2cc(S(=O)(=O)N3CCCC3)c(S(=O)(=O)N3CCCC3)c2)c(C)c1 | inactive: -2.9%
44 | COc1ccc(OC(C)C(=O)NCc2nc(-c3ccc(Cl)cc3)no2)cc1 (centres undefined) | inactive: -21.8%
45 | COc1ccc(NC(=O)CNS(=O)(=O)c2cccs2)c(OC)c1 | inactive: -3.67%
46 | CCC(C(=O)NCc1ccccc1)n1ncn2c(cc3occc32)c1=O (centres undefined) | inactive: 3.35%
47 | CCOC(=O)c1ccc2ncc(C(=O)OCC)c(Nc3ccc(C)c(Br)c3)c2c1 | inactive: -9.58%
48 | Cc1cccc(C(=O)Nc2cccc(C(=O)OCc3cc(=O)n4ccsc4n3)c2)c1 | inactive: 1.98%
49 | COc1ccc(Br)cc1CNC(=O)CN1C(=O)CSc2ccc(S(=O)(=O)N3CCOCC3)cc21 | inactive: 1.31%
50 | Cc1ccc(NC(=O)c2cc3c(=O)n(Cc4cccnc4)ccc3nc2C)cc1F | inactive: 8.08%
51 | COc1ccc(OC)c(CNC(=O)c2cccc(NC(=O)N3CCSc4ncccc43)c2)c1 | inactive: 3.62%
52 | O=c1c2oc3ccccc3c2n(Cc2cccc(C(F)(F)F)c2)c(=O)n1Cc1ccc2c(c1)OCO2 | inactive: -0.309%
53 | COc1cccc(CNC(=O)CN2C(=O)CCn3nc(-c4cn(C)c5ccccc45)cc32)c1OC | inactive: -10.2%
54 | COc1cc(OC)cc(C(=O)Nc2ccc(S(=O)(=O)Nc3onc(C)c3C)cc2)c1 | inactive: 6.76%
55 | CCOC(=O)c1c(C)[nH]c(CCC(=O)Nc2cc(C)cc(C)c2)c1C | inactive: -29%
56 | Cc1ccc(-n2c3c(cc(-c4nc(-c5ccc(Cl)cc5)cs4)c2=O)C(=O)CC(C)(C)C3)cc1 | inactive: 10%
57 | O=C(NCCc1ccccc1)c1ccc(CSc2nc3ccncc3n2Cc2ccccc2)cc1 | inactive: -6.73%
58 | Cc1ccc(NC(=O)CSc2nc(C)cc(C)c2C(=O)Nc2cccc(C)c2)cc1 | inactive: 8.17%
59 | COc1ccc(NC(=O)Cn2ncc3c([nH]c4ccccc43)c2=O)cc1Cl | inactive: 4.45%
